# Laboratory results published in PubChem BioAssay AID1768 (National Center for Advancing Translational Sciences (NCATS), 2009).
# Several values for one entry are separate records, joined by “and”; a condition that tells them apart may be missing. Equal values may be shown once. Screen size: about 270,000 compounds; about 620 (0.23%) were called active. The shares of active, inactive and inconclusive entries below differ from those in the screen. Calls follow the shape of the dose curve; as a rule, active = well fitted inhibition curve with a large enough effect in the polarisation, with a control signal flat (not every such curve was filed as active); inconclusive = small, poorly fitted or top-dose-only effect, or effect the other way, or a change in a side signal; inactive = no such curve, though single readings can be large or run the other way; the % refers to the polarisation. A potency beside an inconclusive call is a rough fit, not a confirmed value. “Side channel” marks fits to a control or component signal instead of the main read-out.
# Molecular target: Menin (Homo sapiens) (UniProt O00255)
# Chain of UniProt O00255 (O00255 whole entry, looked up): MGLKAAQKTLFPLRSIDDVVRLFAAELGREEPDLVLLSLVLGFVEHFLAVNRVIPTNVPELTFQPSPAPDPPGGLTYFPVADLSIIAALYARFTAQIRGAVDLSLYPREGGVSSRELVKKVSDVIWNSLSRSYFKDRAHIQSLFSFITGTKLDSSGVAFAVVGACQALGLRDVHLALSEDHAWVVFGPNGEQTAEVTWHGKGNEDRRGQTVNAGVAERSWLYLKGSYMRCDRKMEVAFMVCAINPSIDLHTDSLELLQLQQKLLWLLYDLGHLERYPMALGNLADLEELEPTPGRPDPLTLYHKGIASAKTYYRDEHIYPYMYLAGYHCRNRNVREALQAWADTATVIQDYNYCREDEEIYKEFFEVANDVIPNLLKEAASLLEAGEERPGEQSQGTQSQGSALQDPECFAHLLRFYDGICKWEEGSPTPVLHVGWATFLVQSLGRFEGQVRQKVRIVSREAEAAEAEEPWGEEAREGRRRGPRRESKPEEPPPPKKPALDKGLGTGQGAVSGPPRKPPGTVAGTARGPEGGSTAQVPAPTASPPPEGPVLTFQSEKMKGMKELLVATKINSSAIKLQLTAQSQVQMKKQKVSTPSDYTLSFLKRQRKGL
# Test: qHTS Assay for Inhibitors Targeting the Menin-MLL Interaction in MLL Related Leukemias: Competition With Texas Red Labeled MLL-derived Mutant Peptide
# Conditions: fluorescence polarization; series mostly up to 61.6 µM
# Potency is read from the fitted curve at half-maximal effect; tags tell the direction and shape of the fitted curve or compound fluorescence and quenching.
row,Compound,Potency
1,O=c1c2ccccc2nc(N2CCCC2)n1-c1ccc(Cl)cc1,"inconclusive: 8.91 µM [inhibitor, full curve]"
2,O=C(N/N=C/c1ccc([N+](=O)[O-])o1)c1cc([N+](=O)[O-])cc([N+](=O)[O-])c1O,"inconclusive: 28.2 µM [quencher, side channel, partial curve]"
3,COc1ccc(Cn2c(N)c(C(=O)NCc3ccco3)c3nc4ccccc4nc32)cc1OC,"inconclusive: 25.1 µM [quencher, side channel, partial curve]"
4,O=C(OCC(=O)c1ccc([N+](=O)[O-])cc1)/C(=C\c1ccc(Cl)cc1)NC(=O)c1ccccc1,"inconclusive: 25.1 µM [quencher, side channel, single point]"
5,O=c1[nH]c(=O)n(CCC2=CCCCC2)c(O)c1C=NC1CCN(Cc2ccccc2)CC1,"inconclusive: 3.55 µM [fluorescent, side channel, full curve]"
6,Cc1cc(N2CCCC2)ccc1C=C(C#N)C#N,"inconclusive: 20 µM [inhibitor, partial curve]"
7,COc1ccc(Oc2c(C)oc3cc(OC(=O)N(C)C)ccc3c2=O)cc1,"inconclusive: 11.2 µM [inhibitor, partial curve]"
8,CC1(C)CC(=O)c2cc(OCC(=O)N3CCN(Cc4ccccc4)CC3)ccc2O1,"inconclusive: 10 µM [fluorescent, side channel, partial curve]"
9,CCC1(C)OC(c2ccccc2)=C/C(=C/C=C2C(=O)NC(=O)NC2=O)O1 (centres undefined),"inconclusive: 28.2 µM [fluorescent, side channel, partial curve]"
10,N#CCCn1cc(C(=O)Nc2ccc([N+](=O)[O-])cc2)c(-c2ccc3c(c2)OCCO3)n1,"inconclusive: 14.1 µM [quencher, side channel, partial curve]"
11,Fc1ccc(C(OCCN2CCN(CCCc3ccccc3)CC2)c2ccc(F)cc2)cc1,"inconclusive: 8.91 µM [fluorescent, side channel, partial curve] and inconclusive: 7.08 µM [fluorescent, side channel, partial curve]"
12,COc1ccc(C(=O)Nc2cc(Cl)ccc2C(=O)O)cc1,"inconclusive: 7.94 µM [quencher, side channel, partial curve]"
13,COP(=O)(OC)c1nc(-c2cccc3ccccc23)oc1N1CCCCC1,"inconclusive: 1.78 µM [inhibitor, full curve, poor fit]"
14,CN1CC(C(=O)c2ccc(F)cc2)C(c2c(F)cccc2Cl)C1 (centres undefined),"inconclusive: 39.8 µM [fluorescent, side channel, single point]"
